# Publication PMC4336329 (PLoS ONE, 2015)
# The campaign covered roughly 310,000 compounds. About 14,000 (4.5%) showed an effect of 50% or more. Effects have a minus sign here. The list shows a part of the results.
# Target: human ether-à-go-go-related gene (hERG) potassium channel (human, UniProt Q12809)
# Assay: primary screen, population patch clamp on CHO cells stably expressing hERG
# 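Also: peak tail current of the secondary pulse compared with the same well before compound.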
# Chain of human ether-à-go-go-related gene (hERG) potassium channel (Q12809 whole entry, looked up): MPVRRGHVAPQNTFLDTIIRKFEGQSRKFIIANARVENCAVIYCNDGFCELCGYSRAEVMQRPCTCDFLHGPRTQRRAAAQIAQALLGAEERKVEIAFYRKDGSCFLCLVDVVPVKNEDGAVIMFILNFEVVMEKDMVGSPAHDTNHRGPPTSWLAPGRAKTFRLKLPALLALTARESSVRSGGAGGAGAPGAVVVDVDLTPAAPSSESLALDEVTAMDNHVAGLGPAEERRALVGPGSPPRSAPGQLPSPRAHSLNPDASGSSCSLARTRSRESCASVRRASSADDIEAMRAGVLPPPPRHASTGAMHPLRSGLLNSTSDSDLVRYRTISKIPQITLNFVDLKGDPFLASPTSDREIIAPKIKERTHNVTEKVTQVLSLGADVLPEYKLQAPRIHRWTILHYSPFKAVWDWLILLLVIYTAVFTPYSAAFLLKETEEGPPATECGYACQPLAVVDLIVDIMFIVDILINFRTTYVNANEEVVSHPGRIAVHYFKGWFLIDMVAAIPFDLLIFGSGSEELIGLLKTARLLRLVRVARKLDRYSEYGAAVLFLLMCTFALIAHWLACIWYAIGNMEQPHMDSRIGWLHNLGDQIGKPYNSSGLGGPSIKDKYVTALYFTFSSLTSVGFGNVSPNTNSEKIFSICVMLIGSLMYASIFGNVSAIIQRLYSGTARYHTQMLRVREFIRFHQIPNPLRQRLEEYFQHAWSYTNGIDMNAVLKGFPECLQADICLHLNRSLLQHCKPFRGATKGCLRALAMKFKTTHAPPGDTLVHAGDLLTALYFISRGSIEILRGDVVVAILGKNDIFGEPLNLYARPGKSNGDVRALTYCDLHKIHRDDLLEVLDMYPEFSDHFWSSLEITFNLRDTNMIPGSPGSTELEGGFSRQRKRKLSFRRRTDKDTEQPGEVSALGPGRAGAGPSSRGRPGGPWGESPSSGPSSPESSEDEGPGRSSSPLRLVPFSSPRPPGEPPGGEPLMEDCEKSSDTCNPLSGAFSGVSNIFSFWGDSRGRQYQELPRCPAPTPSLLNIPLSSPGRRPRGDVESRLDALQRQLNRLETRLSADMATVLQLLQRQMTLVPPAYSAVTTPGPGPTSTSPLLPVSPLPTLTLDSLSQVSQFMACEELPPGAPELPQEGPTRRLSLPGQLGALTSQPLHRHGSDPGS
row,SMILES,"hERG current change (%, negative = inhibition) at 10uM [%]"
1,COc1ccc(C2CC(c3cccs3)=NN2C(=O)CSc2nc(=O)n3ccccc3n2)cc1 (centres unmarked),-57.5
2,O=C(Nc1ccc(Cl)c(S(=O)(=O)N2CCOCC2)c1)c1cn2ccccc2n1,11.9
3,CCN(CC)C(=O)c1ccc(Nc2nnc(-c3ccc(O)cc3)c3ccccc23)cc1,-1.49
4,Cc1cc2occ(CC(=O)NC3CCCc4ccccc43)c2cc1C (centres unmarked),13.5
5,Cn1c(N2CCCCC2)nc2c1c(=O)[nH]c(=O)n2C,-13.1
6,C=CCn1c(CNC(=O)c2ccco2)nnc1SCC(=O)Nc1cccc(Br)c1,-47.3
7,CCOC(=O)C1CCCN(C(=O)CSc2ccc(NC(C)=O)cc2)C1 (centres unmarked),14.9
8,CCOC(=O)c1c(C)[nH]c(C(=O)COC(=O)C(C)N2C(=O)C3CCCCC3C2=O)c1C (centres unmarked),3.57
9,O=C(CC1C(=O)NCCN1Cc1ccc(Cl)c(F)c1)NCC1CCOCC1 (centres unmarked),9.07
10,CN(C(=O)c1ccc(NC(=O)Cc2cccc([N+](=O)[O-])c2)cc1)C1CC1,-10.7
11,COc1cccc(N2CCN(c3ccc4nnc(CCC(=O)Nc5ncccc5C)n4n3)CC2)c1,0.983
12,O=C(C1CCN(Cc2ccc(Cl)cc2)CC1)N1CCN(C(c2ccccc2)c2ccccc2)CC1,11.8
13,Nc1nc(-c2ccc(Cl)cc2)c(N=Nc2ccc(S(=O)(=O)N3CCOCC3)cc2)s1,-1.17
14,Cc1cccc(C)c1NC(=O)CS(=O)CC(=O)NC1CCN(Cc2ccccc2)CC1 (centres unmarked),10.7
15,CCOc1ccc(NC(=S)N2C3CCCC2CC(NC(=O)C2CC2)C3)cc1 (centres unmarked),-8.64
16,COc1ccccc1C(=O)NCCCCNC(=O)c1ccccc1OC,7.51
17,O=[N+]([O-])c1ccccc1Oc1ncccc1[N+](=O)[O-],23.7
18,CC(C)CCC(CC(C)O)C(=O)NNC(=S)Nc1ccccc1 (centres unmarked),6.2
19,c1coc(-c2ccnc3nc(-n4cccc4)nn23)c1,-4.64
20,S=C(NCCc1ccc(Cl)cc1)NC1CCCC1,17.4
21,CCOC(=O)c1c(NC(=O)CSc2nc3nc(C)cc(C)n3n2)sc(CC)c1C,17.2
22,CCN(C(=O)CSc1cc(C)c2ccccc2n1)C1CCS(=O)(=O)C1 (centres unmarked),3.09

row,SMILES,"hERG current change (%, negative = inhibition) at 10uM [%]"
1,CN1CCC(N(C)C(=O)c2sc3cc(F)ccc3c2Cl)CC1,-47.9
2,Cc1c(C=O)c2ccccc2n1CC(=O)NCc1ccc2c(c1)OCO2,21.8
3,Cc1nc(-c2ccc(S(=O)(=O)Nc3ccc(Br)cc3Cl)s2)cs1,13.9
4,Cc1cnc(C(=O)OCC(=O)Nc2sc3c(c2C(N)=O)CCCC3)cn1,1.13
5,CC1CCCN(C(=O)COC(=O)C2CCN(S(=O)(=O)c3ccc4c(c3)OCCO4)CC2)C1 (centres unmarked),-7.83
6,O=S(=O)(NN=C1CCCCCC1)c1ccc(Cl)cc1,14.7
7,CCOC(=O)CN(C(=O)CSc1nnc(COc2ccc(OC)cc2)n1CC)c1ccccc1,-22
8,Cc1cc(=O)oc2cc(OCc3cc4c(cc3Cl)OCO4)ccc12,8.74
9,Cc1ccc(C(=O)Cn2nnc3ccccc32)cc1,4.99
10,O=C1C(Cl)=C(NCC2CCCO2)C(=O)N1c1cccc(Cl)c1Cl (centres unmarked),-18.4
11,O=C(COc1ccc(S(=O)(=O)Nc2ccccc2)cc1)NCc1cccnc1,0.109
12,Cc1c(CC(=O)N2CCC(C(N)=O)CC2)c(=O)oc2cc3c(cc12)CCC1(CCCCC1)O3,-10.9
13,Cc1ccc(CC2C(=O)N(c3ncccn3)C(=O)C2C)cc1 (centres unmarked),10.4
14,O=C(Nc1ccccc1)c1cc2n(n1)C(C(F)(F)F)CC(C1CC1)N2 (centres unmarked),6.72
15,O=C(NCCN1CCOCC1)c1ccc(Cl)c(Cl)c1,-2.39
16,O=C(CCc1c[nH]c2ccccc12)N1CCN(S(=O)(=O)c2ccccc2)CC1,-26.5
17,C#CCNC(=O)C1=C[C@@H](C)C[C@@H](OCc2ccc(CO)cc2)O1,5.12
18,O=C(COC(=O)C1(c2cccc(F)c2)CCCC1)NCc1cccs1,11.3
19,CCOC(=O)/C(C#N)=C\c1ccco1,13.1
20,CCOc1ccc(/C=C2\SC(=S)N(N3C(=O)C4CC4C3=O)C2=O)cc1 (centres unmarked),15.4
21,Cc1cc(NC(=O)CCC(=O)N(c2ccc(F)cc2)C(C(=O)NC2CCCC2)c2ccncc2)no1 (centres unmarked),15.1
22,COc1cccc(CNC(=O)Cc2ccc(-c3ccccc3)cc2)c1,10.9
